# Experimental data: the supplement of paper PMC3334620
# Over roughly 33,000 sequences, “E-score (-0.5 to 0.5)” has its median near -0.036; the highest 2% begin near 0.37. This is one part of the list.
# Biological target: T1, Yer064c (UniProt P40041)
# T1 sequence: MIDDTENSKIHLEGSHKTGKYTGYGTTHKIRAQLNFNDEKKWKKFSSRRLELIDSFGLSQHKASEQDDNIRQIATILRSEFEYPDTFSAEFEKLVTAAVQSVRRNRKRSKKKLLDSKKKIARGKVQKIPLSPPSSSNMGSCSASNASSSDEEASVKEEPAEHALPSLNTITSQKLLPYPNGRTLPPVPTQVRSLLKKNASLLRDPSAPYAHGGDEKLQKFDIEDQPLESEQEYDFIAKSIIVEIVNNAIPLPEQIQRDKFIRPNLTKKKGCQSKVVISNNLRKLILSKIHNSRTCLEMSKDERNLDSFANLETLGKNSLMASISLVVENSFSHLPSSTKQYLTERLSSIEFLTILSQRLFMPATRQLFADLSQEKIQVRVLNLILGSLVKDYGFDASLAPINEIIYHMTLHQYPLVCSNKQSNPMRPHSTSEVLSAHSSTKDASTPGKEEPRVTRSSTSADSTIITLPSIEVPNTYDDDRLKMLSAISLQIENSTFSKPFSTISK
# Assay: PBM E-score (8-mer binding enrichment) (E-score (-0.5 to 0.5)); higher = stronger / more preferred TF binding; most listed sequences are background and not binding sites
# Conditions: protein concentration: 200 nM; construct: GST-full length
# How it was run: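 Universal all-10-mer Agilent arrays, fresh or stripped once, were converted to double-stranded form by primer extension. GST-tagged yeast transcription factors from PURExpress in vitro transcription/translation, full-length or DNA-binding domain only, were applied at about 100-200 nM and detected with fluorescent anti-GST. After masliner normalisation, the Universal PBM Analysis Suite scored each ungapped eight-base word together with its reverse complement by E-score.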
row,Sequence,PBM E-score
1,GATCGTTA,-0.0132
2,AGGACACA,0.0147
3,GATGACGA,0.0355
4,TCCTAAAA,0.0567
5,CACCAGAA,-0.168
6,CTTCCGAA,-0.117
7,CATTCCAA,-0.0809
8,CGCCAGAA,-0.04
9,AAGCTCCA,-0.105
10,ACCGGCCC,-0.205
11,CTAGAAGA,0.19
12,TTAGGAAA,-0.143
13,GCGGTCGA,-0.0541
14,CGGGTATC,-0.204
15,TGGGGCAA,-0.35
16,AGGAATAC,-0.0993
17,CATAAAGC,0.0324
18,ATACACAG,0.109
19,GGGTTATA,0.0263
20,ATATTTAG,0.228
21,GATCCGGA,-0.112
22,AATTTCGC,-0.141
23,ATACGGCG,-0.138
24,ATAGCATC,-0.0406
25,GACACCTC,-0.118

row,Sequence,PBM E-score
1,CACTCTTA,-0.016
2,CTTGAAAC,-0.0405
3,ACTCCAGA,0.151
4,GCCCGGGC,-0.107
5,GCGTGTCA,0.112
6,AGAACGAT,0.0607
7,ACTAGTAG,0.164
8,CTTCGACA,0.112
9,ATGCGCAC,-0.301
10,CGGAATAC,-0.112
11,CATCCTAG,0.0362
12,AGGAAGAG,0.0156
13,AGGTCTCA,0.176
14,ATCGTACA,0.0975
15,ACACTCTA,0.00264
16,TCCTCACA,0.0653
17,TACTAAAA,-0.00832
18,ACGGAGAG,-0.107
19,ACCCGTCT,-0.124
20,AAATGTCA,-0.0301
21,GAGAGTGA,0.195
22,CCGAACGA,-0.0321
23,GGGAAACA,-0.0345
24,AATGTATG,-0.0582
25,ATTTTTTA,0.0802

row,Sequence,PBM E-score
1,AGCCCGCG,-0.172
2,TGTCGGAA,-0.184
3,GATCGCCA,-0.201
4,GACCGGAA,-0.133
5,CATCCATG,-0.0786
6,CAAACGAC,0.0734
7,AGGGCGAA,-0.223
8,AAAGCGTG,-0.042
9,CCTGAGGC,-0.16
10,CCAGCCCA,-0.172
11,AACGGGGA,0.122
12,GCCAAGGA,-0.101
13,CGCTTTAC,-0.205
14,CGTGTTTA,0.0622
15,CGCGGACA,0.0886
16,GCCTGCGA,-0.22
17,AATGAACT,0.0229
18,TCATCCAA,0.236
19,GCAATTGA,0.0418
20,CTGTTAGC,-0.0341
21,GCGGGAGA,-0.15
22,ACTAAATC,0.32
23,CACACGGC,-0.0241
24,CAGTATAG,0.0294
25,AAAGATGA,0.286

row,Sequence,PBM E-score
1,GGAAGTGA,0.0158
2,AGATTGAG,0.191
3,AAGATGAC,0.312
4,CAATCACC,0.343
5,CAAAACGC,-0.00379
6,CGCGCGCC,-0.033
7,ACAGAGGC,-0.124
8,ATAAGTAC,-0.0959
9,CCAAGGCG,-0.0198
10,ATTAAGGG,-0.0881
11,CCGCAGAC,-0.262
12,CGTTTTTC,-0.104
13,GACACCGC,-0.106
14,AAGAAGGA,-0.00132
15,TGAGTGCA,0.0616
16,GAGTCAAC,0.474
17,AAGGATAT,-0.0431
18,ACACCGCA,-0.0478
19,CCCGCAAG,-0.346
20,AATTAGGA,0.0204
21,AATTTTTA,0.037
22,AACACCCG,0.08
23,ACACGTAC,-0.0311
24,AGAGGCGA,-0.198
25,CAACGGTC,-0.186

row,Sequence,PBM E-score
1,AGAGGCAA,-0.189
2,ACCTTCTA,-0.0941
3,GCCCCATA,-0.0804
4,GAGCAATC,0.146
5,GGAGGCCA,-0.386
6,AGTGCTCG,0.0135
7,CCTACGCG,-0.176
8,GCTAGGAA,-0.123
9,CCAACAGA,-0.124
10,CAGAAAAA,-0.104
11,CACCTACC,-0.159
12,ATCTCGAG,0.077
13,GGGCTAAA,-0.133
14,CATTCTAG,0.0408
15,ACACCGCT,-0.08
16,CGGGTTTA,-0.017
17,AGCGGGGA,-0.0712
18,ACGACCAA,0.00728
19,CTCGTGAC,0.307
20,CCTGGCCG,-0.212
21,GGACCTAC,-0.132
22,CACAGAGG,-0.107
23,ACACTTCG,-0.0332
24,CCTATGCA,-0.157
25,AAATTTCT,-0.252

row,Sequence,PBM E-score
1,AGGTAATG,-0.0492
2,GCTTGGAA,-0.102
3,AATTTAAA,0.171
4,GACCACGC,0.322
5,CCACACGC,-0.0721
6,TCTCGCCA,0.0809
7,CAAGTAAA,-0.0198
8,CGTTGTTC,-0.289
9,CGTGCTAC,-0.257
10,ACCTGGTC,-0.12
11,CTGGTAGA,-0.0157
12,ACAATTTC,0.057
13,CGGGGTAA,0.0384
14,CCATCCAA,0.00739
15,CATTCGGA,0.15
16,ATCTGCCG,-0.0445
17,CTCTGTAA,-0.0221
18,GCTTCCGA,-0.133
19,ATATGGTG,-0.0771
20,GACCAGTA,-0.0666
21,CCAACTTC,-0.117
22,GTGAATTA,0.0879
23,ACCCCCAG,-0.0546
24,AGCTTCCA,-0.148
25,CTTAGAGC,-0.0805

row,Sequence,PBM E-score
1,ACAGAGGT,-0.21
2,AGCGATAA,-0.173
3,CGTTGAAC,-0.169
4,GGGTGGTA,-0.222
5,CGTAACAC,0.139
6,ACAGGCCT,-0.209
7,CAACCTAC,-0.195
8,AAGTAGGG,-0.0622
9,AGGGCCGG,-0.282
10,AACTGGGC,-0.315
11,AACTTTTC,0.0287
12,GGGACGCA,-0.165
13,AACATCCC,-0.252
14,ACGAGAAT,-0.125
15,CAGTATTA,-0.0524
16,CTATCCCC,-0.29
17,CGCACTAG,-0.19
18,AATTGACC,-0.0998
19,AGGTTCCC,-0.214
20,CAGGACGA,-0.0439
21,CGCTCTAG,-0.196
22,AAACTGCA,-0.0958
